Laboratory results taken from PubChem BioAssay AID504832 (National Center for Advancing Translational Sciences (NCATS), 2011).
The campaign covered roughly 310,000 compounds. About 18,000 (5.8%) were called active. The inconclusive results got no clear call from the source; some entries with a clear call stand among them for comparison. Calls come from the whole dose curve; as a rule, active = well fitted inhibition curve with a large enough effect; inconclusive = small, poorly fitted or top-dose-only effect, or another doubt; inactive = no such curve, though single readings can be large or run the other way. Potencies of inconclusive entries are left out as doubtful fits.
% is set by controls: 0 for no effect and ±100 for the full control effect; potency is the fitted concentration of half-maximal effect; tags give direction and shape of the fitted curve.

Assay: Primary qHTS for delayed death inhibitors of the malarial parasite plastid, 48 hour incubation
Settings: P. falciparum luciferase growth in erythrocytes; series mostly up to 28.7 µM
Summary of the method: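 Cell-based growth assay: transgenic P. falciparum expressing firefly luciferase, cultured in red cells within RPMI 1640 containing 0.5% w/v Albumax, 24 mM bicarbonate and gentamycin. A drop in luciferase activity indicates inhibition.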
With `Cc1ccc(C(=O)Nc2ccccc2-c2ccccc2)o1` the Potency was “inactive”. In the case of `COC(=O)C1=C(C)N(C)C(=O)NC1c1ccccc1` (stereo not drawn), the Potency is reported as “inactive”. For `COc1ccc(NC(=O)c2cc(=O)c3ccccc3o2)cc1Cl`, the Potency was inconclusive [inhibitor, full curve, poor fit]. In the case of `CCN(CCn1cccn1)Cc1c(C(=O)N2CCCCCCC2)nc2ccc(Cl)cn12`, the Potency is reported as inconclusive [inhibitor, single point]. In the case of `O=C(NCC1OCCCN1S(=O)(=O)c1cc(F)ccc1F)C(=O)NC1CCCC1` (stereo not drawn), the Potency is reported as “inactive”. With `COc1ccccc1NC(=O)C(C)N1C(=O)c2ccccc2C1=O` (stereo not drawn) the Potency was inconclusive [inhibitor, full curve, poor fit]. With `O=C(c1cc2ccccc2oc1=O)N(Cc1ccc2c(c1)OCO2)Cc1ccco1` the Potency was “inactive”. For `COC(c1ccccc1)c1nnc(CCC(=O)N2CCCCCCC2)o1` (stereo not drawn), the Potency was “inactive”. For `COc1ccc(OC)c(C(=O)COC(=O)c2cc(C)oc2C)c1`, the Potency was inconclusive [inhibitor, single point]. For `CC(=O)N=c1c(C#N)cc2c(=O)n3ccccc3nc2n1CCCOC(C)C`, the Potency was “inactive”. For `CCOC(=O)Cc1c(C)nc2cc(-c3ccc(C(C)(C)C)cc3)[nH]n2c1=O`, the Potency was “inactive”. For `Cc1cccc(NS(=O)(=O)c2cc3c(cc2C)NC(=O)CO3)c1`, the Potency was “inactive”. In the case of `COc1ccccc1NC(=O)c1c(N=Cc2ccccc2O)cnn1C`, the Potency is reported as “inactive”. With `CCC(CC)NC(=O)Nc1ccc(F)c(Cl)c1` the activity change, negative = inhibition was inactive: 11% [at 5.75 µM]. For `CC(=O)c1sc(NC(=O)c2ccccc2C)nc1C`, the Potency was “inactive”. In the case of `CC(C)[C@H](NC(=O)[C@@H]1Cc2c([nH]c3ccccc23)C2c3ccccc3C(=O)N21)C(=O)NCC1CCCO1` (stereo partly drawn), the Potency is reported as inconclusive [inhibitor, single point]. With `Cc1cc(N/C=C/C(=O)c2ccccc2)ccc1Br` the Potency was “inactive”. In the case of `Cc1ccc(C(=O)N(c2ccccn2)C(C)c2ccco2)cc1` (stereo not drawn), the Potency is reported as “inactive”. With `Cc1cccc(C)c1NC(=O)Cn1c(=O)n(CCC(=O)NCc2ccco2)c(=O)c2sccc21` the Potency was inconclusive [inhibitor, full curve, poor fit]. With `COCC(=O)Nc1cccc(Br)c1` the Potency was “inactive”. In the case of `O=C(CSc1nc2ccccc2[nH]1)Nc1nc(-c2cccc(Br)c2)cs1`, the Potency is reported as “inactive”. With `O=C(CN1CCN(S(=O)(=O)c2cccc(Cl)c2)CC1)NCC1(N2CCOCC2)CCCCC1` the Potency was active: 10.4 µM. For `CCCCn1c(N)c(N(C)C(=O)c2ccc(-n3cccn3)cc2)c(=O)[nH]c1=O`, the Potency was “inactive”. With `O=C(NCC(c1cccs1)N1CCOCC1)c1ccccc1NS(=O)(=O)c1ccc(Cl)c([N+](=O)[O-])c1` (stereo not drawn) the Potency was inconclusive [inhibitor, single point]. With `CCOc1ccc2c(c1)/C(=C(\C(Cl)=C(Cl)Cl)[N+](=O)[O-])N2` the Potency was “inactive”. For `Cc1ccc(S(=O)(=O)N2CCN(C(=O)CCC(=O)NCc3cccc(C(F)(F)F)c3)CC2)cc1`, the Potency was inconclusive [inhibitor, single point]. With `CC(=O)N1c2ccc(S(=O)(=O)N3CCCC3C(=O)NCc3ccc(Cl)cc3)cc2CC1C` (stereo not drawn) the Potency was inconclusive [inhibitor, full curve, poor fit]. In the case of `CC1=C(C(=O)OC2CCCCCCC2)C(c2cccc(O)c2)NC(=O)N1` (stereo not drawn), the Potency is reported as “inactive”. With `Oc1ccc2c3c1O[C@H]1[C@@H](O)CC[C@@]4(O)C(C2)N(CC2CCC2)CCC314` (stereo partly drawn) the Potency was inconclusive [inhibitor, single point]. In the case of `O=C(COc1coc(CN2CCN(c3ccccc3F)CC2)cc1=O)NC1CCCC1`, the Potency is reported as inconclusive [inhibitor, single point]. With `CCCCn1nc(NS(=O)(=O)c2cccc3nonc23)c2cc3cccc(C)c3nc21` the Potency was inconclusive [inhibitor, partial curve, poor fit]. For `O=C(C1CCCN(S(=O)(=O)c2ccccc2)C1)N1CCN(c2ccccc2)CC1` (stereo not drawn), the Potency was inconclusive [inhibitor, partial curve]. For `CCN(C(=O)CSc1ccc(S(=O)(=O)N2CCOCC2)cn1)c1ccccc1`, the Potency was inconclusive [inhibitor, single point]. In the case of `O=C(Nc1cccc(S(=O)(=O)NC2=NCCC2)c1)c1ccc(=O)[nH]c1`, the Potency is reported as “inactive”. In the case of `COc1ccc(CNC(=O)c2cc3cc(OC)ccc3oc2=O)cc1`, the Potency is reported as “inactive”. For `Cc1nn(Cc2ccc(Cl)cc2Cl)c(C)c1NC(=O)c1ccc(COc2cc(Cl)ccc2Cl)o1`, the Potency was inconclusive [inhibitor, full curve, poor fit]. With `CC(=O)N1CCCc2cc(S(=O)(=O)N3CCCC(C(=O)N4CCN(c5ccccc5)CC4)C3)ccc21` (stereo not drawn) the Potency was inconclusive [inhibitor, partial curve]. In the case of `COc1cc(/C=N/NC(=O)c2cccnc2)ccc1OCC(=O)Nc1ccccc1Cl`, the Potency is reported as inconclusive [inhibitor]. For `COc1ccc(Nc2nc(N)nc(CN3CCC(Cc4ccccc4)CC3)n2)cc1`, the Potency was active: 5.86 µM. In the case of `Cc1cc(NC(=O)COc2ccc(C(C)(C)C)cc2)no1`, the Potency is reported as “inactive”. For `Cc1nc2sc3c(c2c(=O)o1)CCC3`, the Potency was “inactive”. For `Cc1ccc2[nH]c(=O)c(CN(Cc3ccccc3Cl)C(=O)N3CCOCC3)cc2c1`, the Potency was inconclusive [inhibitor, single point]. For `Cc1ccc(NC(=O)c2ccccc2O)cc1`, the Potency was “inactive”. In the case of `COc1cc(OC)c(C2C3=C(CCCC3=O)Nc3nc4ccccc4n32)cc1OC` (stereo not drawn), the Potency is reported as inconclusive [inhibitor, partial curve]. In the case of `COc1ccc(Nc2oc(COc3ccc(OC)cc3)nc2C#N)cc1`, the Potency is reported as inconclusive [inhibitor, single point]. With `CCN(CC)c1nc(-c2ccccc2)cc(C(F)(F)F)c1C#N` the Potency was inconclusive [inhibitor, single point]. In the case of `O=C(NCC(c1cccs1)N1CCOCC1)C1CCN(S(=O)(=O)c2cccc(C(F)(F)F)c2)CC1` (stereo not drawn), the Potency is reported as inconclusive [inhibitor, single point]. In the case of `Cc1cccc(/C=C/c2onc(C)c2S(=O)(=O)N2CCC(C(=O)N3CCCCC3)CC2)c1`, the Potency is reported as active: 9.28 µM.
